Experimental data: the supplement of paper PMC4466236
The full ranking holds about 33,000 sequences; the median of “E-score (dimensionless, -0.5 to 0.5)” is about -0.058, and the highest 2% start at about 0.35. The list shows a part of the results.

Tested on: MvaT
Assay: PBM 8-mer E-score (mean of HK and ME arrays) (E-score (dimensionless, -0.5 to 0.5)); higher = stronger relative binding preference; most listed sequences are background and not binding sites
How it was run: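 Reported values are rank-based E-scores, taken as the mean of two universal arrays and parsed with a custom script. Each 8-mer score falls between -0.5 and 0.5. The arrays, ME and HK, were double-stranded 60-mers with a constant 25-mer primer region and a variable 35-mer region covering all 8-mers. They were probed, by an earlier protocol, with full-length P. aeruginosa MvaT carrying an N-terminal glutathione S-transferase fusion.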

Sequence	PBM 8-mer E-score
ATAATTAC	0.378
ACGATAAT	0.287
CTGCGAAC	0.0125
AAGGACAG	-0.0705
GTTAGGTA	0.0901
ATATCGTA	0.207
ACAGGAGG	-0.164
GCGACGGA	-0.0994
ATAGAGCC	-0.0815
AGATATAC	0.155
AATGGAGG	-0.186
CGATATTC	0.202
AATACATG	0.224
ACCTCTAA	0.000331
AGGCTGGG	-0.266
ACGACCAG	-0.219
TGTATTAA	0.39
AGCATTAA	0.208
CTGTGGTC	-0.194
CTATCAGA	-0.115
ACGCGCGC	-0.0641
AAACCCCA	-0.173
TCGAACCA	-0.00703
CGTCGTCA	-0.0726
GAATCATC	-0.112

Sequence	PBM 8-mer E-score
CATCTGAA	-0.00389
AGTCAGGC	-0.173
GCAAGAGA	-0.144
GGCGGTTA	-0.177
GCTCGTAC	-0.0924
ACCGATTC	-0.156
CCGGAACG	-0.242
AAGGATCT	-0.168
AGCAGGAA	-0.195
ATAGACTG	0.0341
CGAAACTC	-0.0967
ATCCGAAT	0.0444
CTGTGATA	0.143
AGTAGACG	-0.121
ACGCTATC	-0.15
AATACTAC	0.271
CCTCCGTC	-0.266
GAAGTGTA	0.218
CCCAGGAC	-0.177
GATTCCAA	-0.0728
GCGTGCCA	-0.237
ATACTATC	0.237
TATGACCA	-0.0439
CGTGTAAG	-0.0124
ACAGGAGC	-0.145

Sequence	PBM 8-mer E-score
AACCTCTA	-0.0272
CTGTTTTC	0.0105
AGGTTGAG	-0.177
TGTCCGAA	-0.0954
ATAATGAC	0.326
CTGCGCCA	-0.0838
AACTTCGC	0.26
CTTACTCA	0.0388
AGCTCAAT	-0.169
AGTAGAGC	-0.132
GTGCGGTA	-0.0966
CCAGCAGG	-0.279
AGGTCTGC	-0.272
ATAGAAAC	0.0947
AACGTATC	0.1
CCGGTACC	-0.202
AACTGGAG	-0.107
GTTTAAAC	0.406
ACAGGACG	-0.0421
GTAAGGAC	-0.0545
GTAACGGA	0.0141
AAGAGCTT	-0.115
ACGGATGC	-0.159
TGGATCAA	-0.0646
GCATACCA	-0.104

Sequence	PBM 8-mer E-score
ACCCCCGA	-0.346
ACCCATGA	-0.0853
GGACGTAA	0.0586
GGGAACTA	-0.0248
CACGGAGC	-0.202
CCAAATCA	0.0474
GAGCCCGC	-0.222
ATCGCATC	-0.116
GGCTCCAA	-0.166
AGAGTGGC	-0.265
GATGAAGA	-0.134
ATAGACCC	-0.172
CAGTCGAC	-0.088
AGTCTGTA	-0.0134
AAACTAAA	0.357
ACAGCTAC	-0.15
CTAATGTA	0.23
GAAGAAAC	0.0632
GGCTAACC	-0.249
GCTCGTCA	-0.159
CATCGCTA	-0.108
TGTAAACA	0.0992
CCGGAAAG	-0.0519
ATAACGCA	0.266
GTAGGTAA	0.0597

Sequence	PBM 8-mer E-score
TAACCACA	0.157
ACGGTCAT	-0.000811
CGGGAAAG	-0.177
ACATGTAC	0.243
CGCATTTC	0.0897
CTCTGACC	-0.287
CTTCTGTC	-0.223
AACGTGAA	0.148
GGTCATAC	-0.148
GCCCCTCA	-0.212
ATCAGCGA	-0.101
CTTATGGA	0.0194
AATAGCTC	0.0378
ATCGATCG	-0.0319
ATGATGGA	0.0108
CGACACGC	-0.11
CAAGCTTC	-0.186
ACGGAACA	-0.116
ACCGGCTG	-0.285
GCGACGTA	-0.102
ACCGCGAA	-0.00867
CATACCCC	-0.15
GTTATCAA	0.171
CTTACTGC	0.0294
CCAATAAC	0.207

Sequence	PBM 8-mer E-score
GCTACGGA	-0.233
CAACACGC	-0.19
CGCCCATC	-0.117
CGTGAGTC	-0.285
ACGCCTAA	-0.105
ACCCCCAA	-0.334
AGACTTCG	-0.204
ACTAATAA	0.399
CGCGTACG	-0.0728
AAACCTCC	-0.167
AGTTCTGC	0.0769
AGACCTTG	-0.213
CGATCTAG	0.0189
ACTCCGAT	-0.0513
ATGGGCTC	-0.105
CTAATCCC	-0.0591
CAGGCTGG	-0.163
ATCCCGGC	-0.17
CTATCGGA	-0.0671
AAGCACAC	-0.0919
CTAGACCC	-0.273
ATTTCCGA	0.168
TGTTTCAA	0.125
GCAATATA	0.414
AAGTCTGC	-0.0807

Sequence	PBM 8-mer E-score
AAAGCGCG	0.0487
CTGGAGTA	0.045
CTGTGCGA	-0.103
AAACAGCA	0.0994
AACAAAGA	0.275
TGCCAGCA	-0.0639
GTCGTGAA	-0.22
GCGGTACC	-0.107
GAGATCAC	-0.14
AGAAGTAC	0.144
AAAGTAAT	0.373
AACACACA	0.187
TGCGCAAA	0.17
GAATTAGC	0.0672
TCACAGCA	0.0394
AGCGACCG	-0.243
CAACAGGG	-0.00285
AACGGCGG	0.00417
ATAACGAA	0.341
CCGTACGG	-0.29
AAAGTATA	0.41
ACAGTGGG	-0.0167
